This passage reports binding signal results from PMC5700166.

The list shows a part of the results, in another mix than the full data. The list includes weakly bound sequences.

One assay has as its target T1, GST-Ap-NF-kB RHD (UniProt A0A913YAJ5).
T1 sequence: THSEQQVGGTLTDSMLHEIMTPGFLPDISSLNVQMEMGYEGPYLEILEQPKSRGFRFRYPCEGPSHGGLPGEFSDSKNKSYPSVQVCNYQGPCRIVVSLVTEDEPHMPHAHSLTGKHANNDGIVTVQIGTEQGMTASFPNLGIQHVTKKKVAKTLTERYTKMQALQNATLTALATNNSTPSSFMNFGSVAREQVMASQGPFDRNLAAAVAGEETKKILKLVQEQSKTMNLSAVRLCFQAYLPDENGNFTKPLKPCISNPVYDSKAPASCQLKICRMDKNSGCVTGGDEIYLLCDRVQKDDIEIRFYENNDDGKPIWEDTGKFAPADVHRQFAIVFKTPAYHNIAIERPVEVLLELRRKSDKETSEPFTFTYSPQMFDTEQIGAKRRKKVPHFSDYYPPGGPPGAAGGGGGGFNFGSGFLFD
Description: protein-binding microarray (PBM). To be noted: PBM: ~300 nM protein, 6 mM HEPES pH 7.8, 80 mM KCl, 0.5 mM EDTA, 0.5 mM EGTA, 6% glycerol, 35 ng/ul poly-dIdC, 1% milk, 1 h, room temperature; high values mean tight binding; double strand, one strand shown.
As for “CCGATTAACATCAGATCCCCCCCTGATGTTAATCGGGTCTTGATTCGCTTGACGCTGCTG”, the binding signal is 8.16 z-score.

In turn, “CCGATTAACATCACATGGGAATCTGATGTTAATCGGGTCTTGATTCGCTTGACGCTGCTG” returned a binding signal of 1 z-score.

Consider “CCGATTAACATCAGGGATTTTCATGATGTTAATCGGGTCTTGATTCGCTTGACGCTGCTG”, for which the binding signal was determined as 5.23 z-score.

Take “CCGATTAACATCAGGGGAATTTATGATGTTAATCGGGTCTTGATTCGCTTGACGCTGCTG”: the binding signal worked out at 9.91 z-score.

Take “CCGATTAACATCAGGGGGTAGGATGATGTTAATCGGGTCTTGATTCGCTTGACGCTGCTG”: the binding signal came out at 4.15 z-score.

With “CCGATTAACATCAAATTCCCCCTTGATGTTAATCGGGTCTTGATTCGCTTGACGCTGCTG”, the binding signal came to 9.34 z-score.

On to “CCGATTAACATCAGGAGTTCCCCTGATGTTAATCGGGTCTTGATTCGCTTGACGCTGCTG”, for which the binding signal worked out at 8.41 z-score.

The sequence “CCGATTAACATCAGGATTTTCCCTGATGTTAATCGGGTCTTGATTCGCTTGACGCTGCTG” yielded a binding signal of 5.75 z-score.

“CCGATTAACATCAATCCACCCCCTGATGTTAATCGGGTCTTGATTCGCTTGACGCTGCTG” gave a binding signal of 3.95 z-score.

“CCGATTAACATCAGGGGGACAACTGATGTTAATCGGGTCTTGATTCGCTTGACGCTGCTG” came in with a binding signal of 5.19 z-score.

“CCGATTAACATCACAAGTTCCCCTGATGTTAATCGGGTCTTGATTCGCTTGACGCTGCTG”: the binding signal stood at 7.44 z-score.

In turn, “CCGATTAACATCAAGAAATTCCCTGATGTTAATCGGGTCTTGATTCGCTTGACGCTGCTG” displayed a binding signal of 5.84 z-score.

The sequence “CCGATTAACATCAGGGCGTCCCCTGATGTTAATCGGGTCTTGATTCGCTTGACGCTGCTG” gave a binding signal of 6.5 z-score.

“CCGATTAACATCACAGATTCCCCTGATGTTAATCGGGTCTTGATTCGCTTGACGCTGCTG” came in with a binding signal of 7.65 z-score.

With “CCGATTAACATCAGGGGGGTTTATGATGTTAATCGGGTCTTGATTCGCTTGACGCTGCTG”, the binding signal worked out at 7.17 z-score.

On to “CCGATTAACATCAAAACTTTCCCTGATGTTAATCGGGTCTTGATTCGCTTGACGCTGCTG”, for which the binding signal turned out to be 4.81 z-score.

“CCGATTAACATCAAGGGGGGAAATGATGTTAATCGGGTCTTGATTCGCTTGACGCTGCTG”: the binding signal came out at 6.16 z-score.

For the sequence “CCGATTAACATCAGGGAAAACCCTGATGTTAATCGGGTCTTGATTCGCTTGACGCTGCTG”, the binding signal stood at 7.33 z-score.

In turn, “CCGATTAACATCAGGGGACTATATGATGTTAATCGGGTCTTGATTCGCTTGACGCTGCTG” came in with a binding signal of 5.4 z-score.

Sequence “CCGATTAACATCAGGGGGAAGACTGATGTTAATCGGGTCTTGATTCGCTTGACGCTGCTG” registered a binding signal of 5.87 z-score.

“CCGATTAACATCAGGAGCCCCCCTGATGTTAATCGGGTCTTGATTCGCTTGACGCTGCTG” had a binding signal of 5.02 z-score.

Regarding “CCGATTAACATCACCCACGAGGGTGATGTTAATCGGGTCTTGATTCGCTTGACGCTGCTG”, the binding signal stood at 0.185 z-score.

With “CCGATTAACATCAGGGGACATTATGATGTTAATCGGGTCTTGATTCGCTTGACGCTGCTG”, the binding signal was found to be 5.74 z-score.

“CCGATTAACATCAGAAGTTCCCCTGATGTTAATCGGGTCTTGATTCGCTTGACGCTGCTG” gave a binding signal of 7.97 z-score.

The sequence “CCGATTAACATCACCCACCCCCCTGATGTTAATCGGGTCTTGATTCGCTTGACGCTGCTG” returned a binding signal of 3.58 z-score.

In turn, “CCGATTAACATCAGACTTTCCCATGATGTTAATCGGGTCTTGATTCGCTTGACGCTGCTG” displayed a binding signal of 3 z-score.

Consider “CCGATTAACATCAGGAAACTCCCTGATGTTAATCGGGTCTTGATTCGCTTGACGCTGCTG”, for which the binding signal was found to be 5.65 z-score.

Sequence “CCGATTAACATCAAATACCCCCCTGATGTTAATCGGGTCTTGATTCGCTTGACGCTGCTG” came in with a binding signal of 7.87 z-score.

In turn, “CCGATTAACATCAGGACTCCCCCTGATGTTAATCGGGTCTTGATTCGCTTGACGCTGCTG” gave a binding signal of 8.82 z-score.

“CCGATTAACATCAAGTACCCCCCTGATGTTAATCGGGTCTTGATTCGCTTGACGCTGCTG”: the binding signal came to 5.57 z-score.

“CCGATTAACATCAATTATTCCCCTGATGTTAATCGGGTCTTGATTCGCTTGACGCTGCTG” returned a binding signal of 6.67 z-score.

“CCGATTAACATCAGGGGATGTGCTGATGTTAATCGGGTCTTGATTCGCTTGACGCTGCTG” showed a binding signal of 3.15 z-score.

The sequence “CCGATTAACATCAGCGAATTCCCTGATGTTAATCGGGTCTTGATTCGCTTGACGCTGCTG” gave a binding signal of 3.47 z-score.

In the case of “CCGATTAACATCAAATGTCCCCCTGATGTTAATCGGGTCTTGATTCGCTTGACGCTGCTG”, the binding signal worked out at 6.37 z-score.

“CCGATTAACATCAAAACTCCCCCTGATGTTAATCGGGTCTTGATTCGCTTGACGCTGCTG” displayed a binding signal of 9.31 z-score.

The sequence “CCGATTAACATCAGGGAACAACCTGATGTTAATCGGGTCTTGATTCGCTTGACGCTGCTG” registered a binding signal of 2.52 z-score.

“CCGATTAACATCAGGGAATTACCTGATGTTAATCGGGTCTTGATTCGCTTGACGCTGCTG” showed a binding signal of 8.44 z-score.

Sequence “CCGATTAACATCAGGGGGATACATGATGTTAATCGGGTCTTGATTCGCTTGACGCTGCTG” returned a binding signal of 5.54 z-score.

The sequence “CCGATTAACATCAAAATAGCCCCTGATGTTAATCGGGTCTTGATTCGCTTGACGCTGCTG” came in with a binding signal of 5.32 z-score.

In turn, “CCGATTAACATCAGGGGGTCACCTGATGTTAATCGGGTCTTGATTCGCTTGACGCTGCTG” gave a binding signal of 3.61 z-score.

The next assay deals with T2, GST-Nv-NF-kB (Cys allele) (UniProt E5G601).
T2 sequence: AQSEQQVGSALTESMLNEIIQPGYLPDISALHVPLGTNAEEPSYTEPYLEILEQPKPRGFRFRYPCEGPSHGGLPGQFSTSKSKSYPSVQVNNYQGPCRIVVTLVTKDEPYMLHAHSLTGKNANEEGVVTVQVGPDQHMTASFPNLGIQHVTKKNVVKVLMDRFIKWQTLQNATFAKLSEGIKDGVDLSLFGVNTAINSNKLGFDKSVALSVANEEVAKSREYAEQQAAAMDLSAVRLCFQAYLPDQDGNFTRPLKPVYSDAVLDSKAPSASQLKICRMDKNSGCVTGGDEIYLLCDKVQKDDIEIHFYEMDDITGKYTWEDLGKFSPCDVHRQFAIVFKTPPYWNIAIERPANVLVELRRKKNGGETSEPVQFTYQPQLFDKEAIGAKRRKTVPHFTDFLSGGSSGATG
Description: protein-binding microarray (PBM). The conditions noted are these: PBM: ~300 nM protein, 6 mM HEPES pH 7.8, 80 mM KCl, 0.5 mM EDTA, 0.5 mM EGTA, 6% glycerol, 35 ng/ul poly-dIdC, 1% milk, 1 h, room temperature; Ap Aiptasia and Nv Nematostella (sea anemones) / Co Capsaspora / Aq Amphimedon (sponge) / Dm Drosophila / Hu human; RHD is the Rel homology domain; high values mean tight binding; most listed sequences are background and not binding sites; double strand, one strand shown.
As to “CCGATTAACATCAGGGGAATTTATGATGTTAATCGGGTCTTGATTCGCTTGACGCTGCTG”, the binding signal was 11.9 z-score.

As for “CCGATTAACATCAAATTCCCCCTTGATGTTAATCGGGTCTTGATTCGCTTGACGCTGCTG”, the binding signal came out at 10.3 z-score.

In the case of “CCGATTAACATCACCCACGAGGGTGATGTTAATCGGGTCTTGATTCGCTTGACGCTGCTG”, the binding signal is -0.0198 z-score.

With “CCGATTAACATCAGGACTCCCCCTGATGTTAATCGGGTCTTGATTCGCTTGACGCTGCTG”, the binding signal was determined as 7.17 z-score.

For the sequence “CCGATTAACATCAAGTACCCCCCTGATGTTAATCGGGTCTTGATTCGCTTGACGCTGCTG”, the binding signal turned out to be 3.68 z-score.

On to “CCGATTAACATCAATTATTCCCCTGATGTTAATCGGGTCTTGATTCGCTTGACGCTGCTG”, for which the binding signal worked out at 9.08 z-score.

Sequence “CCGATTAACATCAAATGTCCCCCTGATGTTAATCGGGTCTTGATTCGCTTGACGCTGCTG” returned a binding signal of 5.25 z-score.

Take “CCGATTAACATCAGGGAACAACCTGATGTTAATCGGGTCTTGATTCGCTTGACGCTGCTG”: the binding signal was 2.46 z-score.

As to “CCGATTAACATCAGGGGGTCACCTGATGTTAATCGGGTCTTGATTCGCTTGACGCTGCTG”, the binding signal was 2.23 z-score.
